This is one part of the list. The full chains were built here from the parent and the listed change. Values near 0.05 are background.
B1: TEV protease; numbered along this chain (parent)
chain: MGESLFKGPRDYNPISSSICHLTNESDGHTTSLYGIGFGPFIITNKHLFRRNNGTLVVQSLHGVFKVKDTTTLQQHLVDGRDMIIIRMPKDFPPFPQKLKFREPQREERICLVTTNFQTKSMSSMVSDTSCTFPSGDGIFWKHWIQTKDGQCGSPLVSTRDGFIVGIHSASNFTNTNNYFTSVPKNFMELLTNQEAQQWVSGWRLNADSVLWGGHKVFMVKPEEPFQPVKEATQL

Variants of: B1
Assay: raw area under fraction-flipped curve 0-4 h after induction (AUC4h, not background-subtracted), DNA-recorder readout of cleavage of the substrate (dimensionless); higher = more cleavage of the substrate by the protease variant
Settings: temperature: 34 °C; time window: 0-4 h after rhamnose induction
Description: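 In vivo DNA recorder in E. coli TOP10(DE3) ΔrhaA at 34 °C. Each TEVp single-site mutant (parent TEVp 0) is paired with a single-site variant of the 7-mer TEVs (canonical ENLYFQ|S). The substrate sits between flexible linkers in a Bxb1-sfGFP-TEVs-SsrA fusion, so cleavage stabilises Bxb1 and speeds flipping of a recombination array, read by NGS. The value is the raw area under the fraction-flipped curve over 0-4 h after rhamnose induction (AUC4h), with ≥20 reads per time point. It is not background-subtracted; inactive controls average about 0.047.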
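Note: Bxb1 expression induced with 0.2% (w/v) L-rhamnose at OD600 near 0.5, cultures sampled hourly, flipped fraction per protease–substrate barcode pair counted by paired-end Illumina sequencing.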

Variant | area with substrate ENLCFQS | area with substrate ENLDFQS | area with substrate ENLEFQS | area with substrate ENLFFQS | area with substrate ENLKFQS | area with substrate ENLLFQS | area with substrate ENLMFQS | area with substrate ENLNFQS | area with substrate ENLQFQS | area with substrate ENLRFQS | area with substrate ENLSFQS | area with substrate ENLVFQS | area with substrate ENLWFQS | area with substrate ENLHFQS | area with substrate ENLPFQS | area with substrate ENLGFQS | area with substrate ENLIFQS | area with substrate ENLTFQS
H21T | 0.0131 | 0.0603 | 0.0506 | 0.0767 | 0.0698 | 0.0773 | 0.0599 | 0.0636 | 0.0417 | 0.0628 | 0.0646 | 0.0699 | 0.0572 | – | – | – | – | –
V64I | 0.078 | 0.0654 | 0.0768 | 0.0843 | – | – | 0.0818 | 0.0688 | – | – | 0.0608 | – | – | 0.0697 | – | – | – | –
V64H | 0.0509 | 0.0611 | – | – | 0.0656 | – | – | – | – | – | – | – | – | 0.0716 | 0.0516 | – | – | –
L56A | 0.0502 | 0.0497 | – | 0.0661 | 0.0633 | – | 0.0682 | 0.0506 | – | 0.0659 | – | – | 0.0536 | 0.0577 | – | 0.0584 | – | –
L112G | 0.0789 | 0.0652 | 0.0498 | 0.0616 | 0.0644 | 0.053 | 0.0667 | 0.047 | 0.0609 | 0.0639 | 0.0492 | 0.0589 | 0.0398 | 0.0514 | 0.0594 | 0.0508 | 0.0877 | –
L112D | 0.0527 | 0.0615 | 0.0577 | – | – | 0.0297 | – | 0.0522 | 0.0575 | – | – | – | 0.0495 | – | 0.0585 | – | – | 0.0692
I36P | 0.05 | 0.0468 | 0.0385 | 0.043 | 0.059 | – | 0.0524 | 0.0431 | 0.0438 | 0.0461 | 0.0279 | – | 0.0391 | 0.0426 | 0.0378 | 0.0455 | – | –
L22G | 0.0521 | 0.0452 | – | 0.0487 | 0.0482 | 0.0379 | – | 0.0504 | – | – | 0.0346 | – | – | – | 0.0349 | – | 0.0556 | –
R106Q | 0.0524 | 0.0581 | 0.0683 | 0.0924 | 0.0791 | 0.092 | – | 0.0703 | 0.0688 | 0.0914 | 0.0504 | 0.0784 | 0.0502 | 0.0531 | 0.0552 | – | – | –
T72K | 0.0713 | 0.0662 | 0.0686 | 0.0931 | 0.0862 | 0.0797 | 0.0616 | 0.0529 | 0.0673 | 0.0694 | 0.0756 | 0.0876 | 0.0617 | 0.0728 | 0.0528 | – | – | –
V57R | 0.0744 | – | 0.0612 | 0.0826 | 0.0781 | – | – | 0.0733 | – | 0.0863 | – | – | 0.0719 | – | 0.0591 | – | – | –
P96A | 0.0746 | 0.0619 | 0.0793 | – | – | 0.0738 | – | 0.0605 | 0.0728 | – | 0.0593 | 0.0915 | 0.0516 | 0.06 | – | – | – | –
P96R | 0.0693 | 0.0716 | – | 0.0942 | 0.0714 | – | – | – | – | – | – | 0.0858 | 0.0832 | 0.0885 | – | 0.061 | – | –
P96C | 0.0764 | 0.0519 | 0.0741 | 0.0881 | 0.0653 | – | 0.0882 | 0.0595 | 0.0727 | 0.0764 | 0.0563 | – | 0.0543 | 0.0615 | 0.0507 | – | – | –
F65A | 0.0708 | 0.047 | – | 0.0904 | 0.081 | 0.0699 | – | 0.0695 | 0.0824 | – | 0.0555 | – | – | 0.0683 | – | – | – | –
R102Y | 0.0338 | 0.048 | – | 0.0394 | – | – | – | – | – | 0.0381 | – | – | 0.0478 | – | – | – | – | –

Variant | area with substrate ENLCFQS | area with substrate ENLDFQS | area with substrate ENLEFQS | area with substrate ENLFFQS | area with substrate ENLKFQS | area with substrate ENLLFQS | area with substrate ENLMFQS | area with substrate ENLNFQS | area with substrate ENLQFQS | area with substrate ENLRFQS | area with substrate ENLSFQS | area with substrate ENLVFQS | area with substrate ENLWFQS | area with substrate ENLHFQS | area with substrate ENLPFQS | area with substrate ENLGFQS | area with substrate ENLIFQS | area with substrate ENLTFQS
R102G | 0.0559 | 0.0222 | 0.0543 | 0.0585 | 0.0602 | 0.0549 | – | 0.051 | 0.0546 | 0.0532 | 0.0561 | 0.0557 | 0.0541 | 0.0596 | 0.0625 | – | – | –
F101W | 0.0607 | 0.0708 | – | 0.101 | 0.0849 | 0.0728 | – | 0.0573 | – | 0.0763 | 0.0641 | – | – | – | 0.0848 | 0.0651 | – | –
S16K | 0.0849 | 0.0702 | 0.0591 | 0.109 | 0.0977 | 0.0938 | 0.0746 | 0.0715 | 0.0825 | 0.0618 | 0.0518 | 0.0975 | 0.0831 | 0.077 | 0.0621 | 0.06 | 0.0659 | –
I15L | 0.0769 | 0.059 | 0.0632 | 0.0843 | 0.0724 | 0.0638 | 0.0659 | 0.0642 | – | 0.0705 | 0.0611 | – | 0.0582 | 0.0702 | 0.0616 | 0.0722 | 0.0761 | –
G80V | 0.0416 | 0.0558 | – | 0.0866 | 0.072 | – | 0.0682 | 0.0686 | 0.0696 | 0.0685 | – | 0.0756 | 0.0705 | 0.0597 | 0.0585 | – | – | 0.0669
E108Q | 0.0483 | 0.0499 | 0.0462 | 0.0636 | 0.0666 | 0.0651 | 0.0571 | 0.0581 | 0.0599 | 0.0704 | 0.0576 | – | 0.0553 | 0.057 | 0.0655 | – | – | –
G35R | 0.0423 | 0.052 | 0.0439 | – | 0.0539 | – | – | – | – | – | 0.0347 | – | 0.0434 | – | – | – | – | –
G35E | 0.0625 | 0.0509 | 0.0537 | 0.0367 | – | – | – | 0.0482 | – | – | – | – | – | – | – | – | – | –
P104C | 0.0797 | 0.0567 | 0.0599 | 0.0705 | 0.0629 | 0.0928 | 0.0551 | 0.0607 | 0.0687 | 0.065 | 0.0569 | – | 0.0574 | 0.0592 | 0.0583 | 0.0611 | 0.075 | 0.0649
P104K | 0.064 | 0.0654 | 0.0237 | 0.0673 | 0.0324 | 0.0536 | 0.0519 | – | – | – | 0.0365 | – | 0.0427 | – | 0.0382 | – | 0.0466 | –
N24F | 0.0836 | 0.0715 | 0.0643 | 0.0751 | 0.0743 | – | – | 0.0663 | 0.0569 | – | 0.0583 | 0.0677 | 0.062 | – | 0.0616 | 0.0855 | 0.0591 | –
N116C | 0.0856 | 0.0537 | 0.069 | – | 0.0702 | 0.0742 | – | – | – | – | 0.062 | – | – | 0.0825 | 0.0628 | – | – | –
F41D | 0.0816 | 0.0647 | 0.0532 | 0.0558 | 0.0599 | – | 0.056 | 0.0633 | – | – | 0.0573 | 0.0541 | 0.044 | 0.0612 | 0.0367 | 0.0358 | 0.0722 | –
S18T | 0.067 | 0.0644 | 0.0743 | 0.0986 | – | – | – | 0.0696 | – | 0.0268 | – | – | 0.0953 | – | – | 0.0663 | 0.101 | –
L77P | 0.0605 | 0.0618 | 0.0992 | 0.0821 | – | – | – | – | – | – | 0.0753 | – | 0.0502 | – | – | – | 0.042 | –

Source: the supplement of paper PMC12217912
